According to PubChem BioAssay (NCATS):
Where “and” joins values, the source holds several entries; their conditions need not be identical. Identical values can stand only once. Inconclusive means that the source gave no clear call. Such entries were picked first, then a sample of the others. Where the call is inconclusive, the potency comes from a doubtful curve fit. Calls of active or inactive are those of the source. Calls come from the whole dose curve; as a rule, active = well fitted curve in the direction sought with a large enough effect; inconclusive = small, poorly fitted or top-dose-only effect, or another doubt; inactive = no such curve, though single readings can be large; an effect the other way counts as inactive or inconclusive.

Assays:
[1] = Viability qHTS for spleen associated tyrosine kinase inhibitor (SYKi) naive MV4-11 cells (AID 1963823); details: MV4-11 AML viability, CellTiter-Glo luminescence, 72 h; series mostly up to 45 µM; note: nearly all actives have a fitted effect of over 40% in size
Outline: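 Cells: MV4-11, SYK inhibitor naive, 500 per well. Treatment: library compounds, 72 hr, 37 C, 5% CO2. Read-out: CellTiter-Glo luminescence after 10 min RT.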

[2] = Viability qHTS for spleen associated tyrosine kinase inhibitor (SYKi) drug resistant MV4-11 cells (AID 1963824); details: SYKi-resistant MV4-11 viability, CellTiter-Glo, 72 h; series mostly up to 45 µM; note: nearly all actives have a fitted effect of over 35% in size
Outline: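 SYK inhibitor-resistant MV4-11 AML cells, 500 per well, added to predispensed compounds and incubated 72 hr at 37 C, 5% CO2. Viability measured by CellTiter-Glo luminescence after 10 min at room temperature.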

[3] = Quantitative highthroughput screen to assess conditional lethalithy of NOMO1 cells grown in RPMI1640 with untreated serum (RPMI+s) (AID 1963876); details: NOMO1 AML cells in RPMI+serum, CellTiter-Glo viability, 48 h; viability: at 45.8 µM (top of the series); note: nearly all actives have a fitted effect of over 35% in size
Outline: (§1)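 Each medium arm—HPLM with 10% dialyzed FBS, or RPMI1640 with 5 mM glucose and 10% untreated or dialyzed FBS—was screened against an 11-point, 3-fold compound titration for 48 h at 37 °C, with CellTiter-Glo luminescence as endpoint.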

[4] = Quantitative highthroughput screen to assess conditional lethalithy of NOMO1 cells grown in RPMI1640 with dialyzed fetal bovine serum (RPMI+ds) (AID 1963877); details: NOMO1 in RPMI+dialyzed FBS viability, ATP luminescence, 48 h; series mostly up to 45.8 µM; note: nearly all actives have a fitted effect of over 30% in size
Outline: as §1

[5] = Quantitative highthroughput screen to assess conditional lethalithy of NOMO1 cells grown in Human Plasma-Like Medium with dialyzed fetal bovine serum (HPLM+ds) (AID 1963878); details: NOMO1 AML cells in HPLM+ds, CellTiter-Glo viability, 48 h; viability: at 45.8 µM (top of the series); note: nearly all actives have a fitted effect of over 35% in size
Outline: as §1

[6] = Quantitative highthroughput screen to assess conditional lethalithy of P12 Ichikawa cells grown in RPMI1640 with dialyzed fetal bovine serum (RPMI+ds) (AID 1963880); details: ATP luminescence, 48 h; Potency: P12-Ichikawa viability; series mostly up to 45.8 µM; note: nearly all actives have a fitted effect of over 35% in size
Outline: as §1

[7] = Quantitative highthroughput screen to assess conditional lethalithy of P12 Ichikawa cells grown in RPMI1640 with untreated serum (RPMI+s) (AID 1963881); details: ATP luminescence, 48 h; Potency: viability; series mostly up to 45.8 µM; note: nearly all actives have a fitted effect of over 35% in size
Outline: as §1

[8] = Quantitative highthroughput screen to assess conditional lethalithy of SEM cells grown in Human Plasma-Like Medium with dialyzed fetal bovine serum (HPLM+ds) (AID 1963882); details: SEM B-ALL cells in HPLM+ds, CellTiter-Glo viability, 48 h; series mostly up to 45.8 µM; note: nearly all actives have a fitted effect of over 35% in size
Outline: as §1

[9] = Quantitative highthroughput screen to assess conditional lethalithy of SEM cells grown in RPMI1640 with unreated serum (RPMI+s) (AID 1963883); details: SEM B-ALL cells, CellTiter-Glo viability, 48 h; viability: at 45.8 µM (top of the series); note: nearly all actives have a fitted effect of over 35% in size
Outline: as §1

[10] = Cellular viability qHTS for adrenocortical cancer (ACC) cell line NCI-H295R (AID 1963990); details: CellTiter-Glo ATP luminescence, 48 h; series mostly up to 46.1 µM; note: nearly all actives have a fitted effect of over 60% in size
Outline: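 CellTiter-Glo ATP luminescence, read 48 h after compound addition, measured viability of NCI-H295R adrenocortical cells grown serum-free with ITS. Final concentrations spanned up to 46 uM. Data normalized to DMSO and doxorubicin, fitted for IC50 and maximal response.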

[11] = Quantitative highthroughput screen to assess conditional lethalithy of SEM cells grown in RPMI1640 with dialyzed fetal bovine serum (RPMI+ds) (AID 1963884); details: SEM B-ALL cells, RPMI+dialyzed FBS, CellTiter-Glo viability, 48 h; viability: at 45.8 µM (top of the series); note: nearly all actives have a fitted effect of over 35% in size
Outline: as §1

[12] = Cellular viability qHTS for adrenocortical cancer (ACC) cell line SW-13 (AID 1963989); details: SW-13 ACC cells viability, CellTiter-Glo, 48 h; activity (max response): stronger effect = lower value; note: nearly all actives have a fitted effect of over 65% in size
Outline: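 Viability was read as CellTiter-Glo luminescence after 48 h compound treatment (up to 46 uM final) of SW-13 cells grown serum-free; titration curves were fit with a four-parameter logistic model to give IC50 and efficacy.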

[13] = Quantitative highthroughput screen to assess conditional lethalithy of P12 Ichikawa cells grown in Human Plasma-Like Medium with dialyzed fetal bovine serum (HPLM+ds) (AID 1963879); details: ATP luminescence, 48 h; Potency: viability; series mostly up to 45.8 µM; note: nearly all actives have a fitted effect of over 35% in size
Outline: as §1
Potency is the fitted concentration of half-maximal effect; tags give direction and shape of the fitted curve.

| Structure (SMILES) | Potency [1] | Potency [2] | Potency [3] | Potency [4] | Potency [5] | Potency [6] | Potency [7] | Potency [8] | Potency [9] | Potency [10] | Potency [11] | Potency [12] | Potency [13] |
| --- | --- | --- | --- | --- | --- | --- | --- | --- | --- | --- | --- | --- | --- |
| CCn1cc(-c2ccnc3[nH]c(-c4cccc(CN(C)C)c4)cc23)c(-c2ccc(NC(=O)N(C)C)cc2)n1 | active: 103 nM and active: 83.3 nM | active: 282 nM and active: 235 nM | inconclusive: 0.059 µM [cytotoxic, full curve] | inconclusive: 0.0469 µM [cytotoxic, full curve] | inconclusive: 5.9 µM [cytotoxic, partial curve, poor fit] | active: 0.0833 µM | active: 0.0833 µM | active: 0.0743 µM | active: 0.0469 µM | active: 12.6 µM |  |  |  |
| CCOc1cc(C(=O)Nc2ccc(Cl)c(-c3nc4ccccc4[nH]3)c2)cc(OCC)c1OCC | inconclusive: 9.34 µM [cytotoxic, full curve] | inconclusive: 9.2 µM [cytotoxic, partial curve] | inconclusive: 37.2 µM [cytotoxic, single point] | inconclusive: 37.2 µM [cytotoxic, single point] | inconclusive: 37.2 µM [cytotoxic, single point] | inconclusive: 33.2 µM [cytotoxic, single point] | inconclusive: 37.2 µM [cytotoxic, single point] |  | inconclusive: 11.8 µM [cytotoxic, single point] |  | inconclusive: 11.8 µM [cytotoxic, partial curve, poor fit] | inconclusive: 12.6 µM [cytotoxic, partial curve, poor fit] |  |
| CC(=O)Nc1ccc([C@H](C)C(=O)Nc2ncc(C(C)C)s2)cc1 | active: 1.66 µM | active: 4.61 µM | active: 4.69 µM | active: 8.33 µM | active: 7.43 µM |  |  | active: 6.62 µM | active: 7.43 µM | active: 3.55 µM |  |  |  |
| COc1ccc2c(c1)c(CC(=O)O)c(C)n2C(=O)c1ccc(Cl)cc1 | inconclusive: 299 nM [cytotoxic, full curve, poor fit] and inactive | inconclusive: 18.6 µM [cytotoxic, partial curve, poor fit] | inactive | inactive | inactive |  |  | inactive | inactive |  |  |  |  |
| NC(=O)Nc1cc(-c2ccc(CN3CCOCC3)cc2)sc1C(N)=O | active: 0.209 µM | active: 0.468 µM | inconclusive: 0.0833 µM [cytotoxic, full curve] | inconclusive: 0.118 µM [cytotoxic, full curve] | inconclusive: 0.0833 µM [cytotoxic, full curve, poor fit] |  | active: 0.118 µM |  |  | active: 5.01 µM | active: 0.105 µM |  |  |
| Cc1c(CN2CCN(S(C)(=O)=O)CC2)sc2c(N3CCOCC3)nc(-c3cnc(N)nc3)nc12 | active: 146 nM and inconclusive: 468 nM [cytotoxic, full curve] | inconclusive: 0.742 µM [cytotoxic, full curve] | inconclusive: 0.418 µM [cytotoxic, full curve] | inconclusive: 0.0526 µM [cytotoxic, full curve] | inconclusive: 0.0469 µM [cytotoxic, full curve] | inconclusive: 0.264 µM [cytotoxic, full curve] |  | inconclusive: 0.0662 µM [cytotoxic, full curve] | inconclusive: 0.187 µM [cytotoxic, full curve] | active: 0.794 µM | inconclusive: 0.296 µM [cytotoxic, full curve] | active: 0.891 µM |  |
| COc1ccc(-c2coc3cc(O)cc(O)c3c2=O)cc1 | inconclusive: 29.5 µM [cytotoxic, partial curve] | inconclusive: 23.5 µM [cytotoxic, partial curve] | inactive | inactive | inconclusive: 26.4 µM [cytotoxic, single point] |  | inactive | inconclusive: 37.2 µM [cytotoxic, single point] |  | active: 28.2 µM |  |  |  |
| O=C(O)c1ccc2cc(-c3ccc(O)c(C45CC6CC(CC(C6)C4)C5)c3)ccc2c1 | inconclusive: 0.372 µM [cytotoxic, full curve, poor fit] | active: 0.417 µM | active: 1.05 µM | inconclusive: 0.418 µM [cytotoxic, full curve] | inconclusive: 0.59 µM [cytotoxic, full curve] |  |  | active: 0.372 µM | active: 0.372 µM |  | active: 0.235 µM | inconclusive: 2 µM [cytotoxic, full curve] |  |
| NS(=O)(=O)NCCNc1nonc1C(=Nc1ccc(F)c(Br)c1)NO | inconclusive: 18.4 µM [cytotoxic, single point] and inactive and inconclusive: 26.3 µM [cytotoxic, single point] | inconclusive: 14.6 µM [cytotoxic, partial curve, poor fit] and inconclusive: 4.61 µM [cytotoxic, partial curve, poor fit] and inconclusive: 26.3 µM [cytotoxic, partial curve] | active: 2.63 µM | active: 8.31 µM | inconclusive: 0.831 µM [cytotoxic, full curve] |  | active: 5.24 µM | active: 16.6 µM |  |  | active: 9.33 µM |  |  |
| N#CCNC(=O)c1ccc(-c2ccnc(Nc3ccc(N4CCOCC4)cc3)n2)cc1 | active: 411 nM and inconclusive: 525 nM [cytotoxic, full curve] | active: 580 nM and active: 934 nM | inconclusive: 26.4 µM [cytotoxic, single point] | inconclusive: 20.9 µM [cytotoxic, partial curve, poor fit] |  | inconclusive: 18.7 µM [cytotoxic, partial curve] | inconclusive: 14.8 µM [cytotoxic, partial curve] | active: 11.8 µM |  | inconclusive: 35.5 µM [cytotoxic, single point] | inconclusive: 7.43 µM [cytotoxic, partial curve] | active: 25.1 µM | inconclusive: 18.7 µM [cytotoxic, partial curve] |
| CC[C@H](C)C(=O)O[C@H]1C[C@@H](C)C=C2C=C[C@H](C)[C@H](CC[C@@H]3C[C@@H](O)CC(=O)O3)[C@H]21 | inconclusive: 3.76 µM [cytotoxic, partial curve, poor fit] and inconclusive: 6.32 µM [cytotoxic, partial curve] | active: 2.66 µM and active: 3.17 µM and active: 4.68 µM | inactive | inconclusive: 20.9 µM [cytotoxic, single point] |  | inconclusive: 16.6 µM [cytotoxic, partial curve] | inconclusive: 13.2 µM [cytotoxic, partial curve] | inactive | inconclusive: 0.0012 µM [rising, full curve, poor fit] |  |  | inconclusive: 28.2 µM [cytotoxic, partial curve, poor fit] | inconclusive: 14.8 µM [cytotoxic, partial curve] |
| CNC(=O)c1cc(Oc2ccc(NC(=O)Nc3ccc(Cl)c(C(F)(F)F)c3)c(F)c2)ccn1 | inconclusive: 0.231 µM [cytotoxic, full curve] | active: 291 nM and active: 590 nM | inconclusive: 13.2 µM [cytotoxic, partial curve, poor fit] | inactive |  |  | inconclusive: 23.5 µM [cytotoxic, single point] | inconclusive: 0.332 µM [cytotoxic, full curve] | active: 0.372 µM |  |  |  | inconclusive: 18.7 µM [cytotoxic, partial curve, poor fit] |
| Cc1cn([C@@H]2O[C@H](CO)[C@@H](O)[C@H]2F)c(=O)[nH]c1=O | inactive | inactive | inconclusive: 33.2 µM [cytotoxic, single point] | inconclusive: 33.2 µM [cytotoxic, single point] |  | inconclusive: 37.2 µM [cytotoxic, single point] | inconclusive: 33.2 µM [cytotoxic, single point] |  | inactive |  |  |  |  |
| CC(C)Oc1ccc2c(=O)c(-c3ccccc3)coc2c1 | inconclusive: 11.9 µM [cytotoxic, partial curve, poor fit] and inconclusive: 33.5 µM [cytotoxic, single point] | inconclusive: 33.5 µM [cytotoxic, single point] | inactive | inactive |  | inactive | inactive |  |  |  | inconclusive: 0.0743 µM [rising, full curve, poor fit] |  |  |
| CCCc1nc(C)c2c(=O)[nH]c(-c3cc(S(=O)(=O)N4CCN(CC)CC4)ccc3OCC)nn12 | inactive and inconclusive: 29.5 µM [cytotoxic, partial curve] | inconclusive: 18.8 µM [cytotoxic, single point] and inconclusive: 18.6 µM [cytotoxic, partial curve] | active: 9.35 µM | active: 9.35 µM |  | active: 9.35 µM | active: 10.5 µM | active: 11.8 µM | active: 9.35 µM |  | active: 7.43 µM |  | active: 16.6 µM |
